# According to PubChem BioAssay AID1240 (Sanford-Burnham Center for Chemical Genomics, 2008):
# In all, about 50,000 compounds went through this assay and about 800 (1.6%) showed an effect of 50% or more. The list shows a part of the results.
# Target: Bcl-2-like protein 10 (Homo sapiens) (UniProt Q9HD36)
# Test: TR3 peptide-Bcl-B binding displacers, biochemical primary FP assay, phenotype converters (AID 1240);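 also: 0% = Bcl-B with tracer peptide and DMSO and 100% = tracer peptide lacking Bcl-B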
# Details: GST-Bcl-B / FITC-TR3 peptide fluorescence polarization; stronger effect = higher value; compound at 3.75 mg/L
# Sequence of UniProt Q9HD36 (Q9HD36 whole entry, looked up): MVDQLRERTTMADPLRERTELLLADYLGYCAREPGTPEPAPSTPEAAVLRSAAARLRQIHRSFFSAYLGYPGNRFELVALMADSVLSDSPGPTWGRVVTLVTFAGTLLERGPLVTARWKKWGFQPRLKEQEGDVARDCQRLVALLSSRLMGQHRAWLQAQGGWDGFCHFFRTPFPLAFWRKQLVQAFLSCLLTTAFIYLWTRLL
row,Structure (SMILES),displacement [%]
1,CCc1ccc(NC(=O)c2cc3n(n2)C(C(F)(F)F)CC(c2ccc(Cl)cc2)N3)cc1 (configuration not stated),7.5
2,COc1ccc(N2C(=O)NC(=O)/C(=C\c3cccc(OC)c3OC)C2=O)cc1,14
3,CCCC(C)NC(=O)c1ccc(F)cc1 (configuration not stated),1.4
4,Cc1cccc(C(=O)N2CCC(C)CC2)c1,-3.2
5,Cc1cc(Nc2ccc(N)c(C)c2)ccc1N,-5.7
6,CCOC(=O)/C(=C(/C)NCc1ccccc1)c1c(O)cc(Br)c(O)c1Br,12.1
7,CCOC(=O)c1ccc(N2COc3ccc4ccccc4c3C2)cc1,8.7
8,Cc1ccc(S(=O)(=O)Nc2cc(C)c(O)c(C)c2)cc1,2.2
9,O=C(Nc1cccc(Cl)c1)Nc1nc2ccc(Br)cc2s1,-4.4
10,CCn1c2ccccc2c2cc(CN3CCN(C(=O)c4ccc([N+](=O)[O-])cc4)CC3)ccc21,-3
11,O=C(N/N=C/c1ccco1)C(=O)N1CCCC1,-15.2
12,COc1ccc(CCN=CC2=C(O)c3ccccc3C2=O)cc1,1.9
13,CC1=C(C(=O)OC(C)C)C(c2ccccn2)C2=C(CC(C)(C)CC2=O)N1 (configuration not stated),4.4
14,O=C(CSc1nc2sc3c(c2c(=O)n1-c1ccccc1)CCCC3)NCCc1ccccc1,1.7
15,CC(=O)Oc1ccc(C(=O)O)c(OC(C)=O)c1,11.7
16,Nc1ccc2nc(SCC(=O)NCCOc3ccc(Cl)cc3)sc2c1,-5.6
17,CN1CCN(Cc2cc(CSc3ccccc3)c3cccnc3c2O)CC1,49
18,COc1ccc(OC)c(C2NC(c3cc(OC)ccc3OC)C(C)C(O)(c3ccc(F)cc3)C2C)c1 (configuration not stated),15.5
19,CSc1nnc2c(n1)OC(C(=O)c1ccccc1)Nc1ccccc1-2 (configuration not stated),13.5
20,Cc1cccc(CN2CCN(C(=O)c3ccc([N+](=O)[O-])cc3)CC2)c1,-6.5
21,O=C(NCCO)C(=O)NCc1ccco1,2.7
22,O=C1CC(Nc2ccc(F)cc2)C(=O)N1c1ccc(Br)cc1 (configuration not stated),3.6

row,Structure (SMILES),displacement [%]
1,COc1ccc(C(NC(=O)c2cccc(C)c2)NC(=O)c2cccc(C)c2)cc1OC,-5.8
2,COc1ccc(/C(C)=N\N2CCN(Cc3ccccc3Cl)CC2)cc1OC,-8.1
3,CCOc1ccccc1C(=O)Nc1ccc(C(=O)OCC(C)C)cc1,11.1
4,O=C1C(Cl)=C(Nc2ccccc2F)C(=O)N1c1ccc(Cl)cc1,4.3
5,O=C(CCCN1C(=O)c2cccc3cccc(c23)C1=O)Nc1cccc2ccccc12,5
6,O=C(Nc1ccc2c(c1)C(=O)N(c1ccccc1)C2=O)c1ccc2c(c1)C(=O)N(c1ccccc1)C2=O,6.7
7,O=C(NC1CCCC1)c1cc2ccccc2oc1=O,-12.3
8,O=C1/C(=C/c2c[nH]c3ccccc23)CC/C1=C\c1c[nH]c2ccccc12,-74.6
9,O=C(Nc1cccc([N+](=O)[O-])c1)C1CC1(c1ccccc1)c1ccccc1 (configuration not stated),2.9
10,Cc1ccccc1C1C2=C(CC(C)(C)CC2=O)NC2=C1C(=O)CC(C)(C)C2,12.1
11,COC(=O)C1=C(C(=O)OC)SC(=C2C(=S)C(C)(C)N(C(=O)C(C)C)c3cc(C)ccc32)S1,8.5
12,CC(C)(C)c1ccc(CC2CC2(Cl)Cl)c([N+](=O)[O-])c1 (configuration not stated),0.3
13,COc1ccc2oc(-c3ccccc3)c(C(=O)N3CCOCC3)c2c1,8.6
14,COc1ccc(OC)c(-n2c(O)c(C=NCc3ccc(F)cc3)c(=O)[nH]c2=O)c1,7.9
15,COc1ccc(C(=O)/C=C/c2cc3c(cc2Br)OCO3)cc1OC,9.1
16,CC1C2C=CC(C1C(=O)N(C=O)c1cccc([N+](=O)[O-])c1)C2C1=CCCC1 (configuration not stated),2.1
17,O=C(c1ccc(Cl)cc1[N+](=O)[O-])N1CCN(C/C=C/c2ccccc2)CC1,-5.5
18,CC(Nc1cc(N2CCN(C)CC2)ccc1[N+](=O)[O-])c1ccc(Br)cc1 (configuration not stated),9.3
19,Cc1nn(C(=O)C23CC4CC(CC(C4)C2)C3)c(C)c1Sc1ccc([N+](=O)[O-])cc1,7.2
20,Cc1ccc(-c2nc(N/N=C/c3cccc([N+](=O)[O-])c3)c3ccccc3n2)cc1,2.6
21,COc1cc(NC(=O)c2ccc([N+](=O)[O-])cc2)ccc1NC(=O)c1cc2ccccc2o1,2
22,O=C(CCC1CCCCC1)Nc1ccncc1,7.8

row,Structure (SMILES),displacement [%]
1,NC1=NC(=O)/C(=C/c2ccc(OS(=O)(=O)c3ccc([N+](=O)[O-])cc3)c(Br)c2)S1,-5.9
2,COc1ccc(-c2csc(/C(C#N)=C/c3sccc3C)n2)cc1OC,181
3,CC(C)OC(=O)CC(O)(c1ccccc1)C(F)(F)C(F)F (configuration not stated),-12.3
4,COc1ccccc1-c1c(C(F)(F)F)oc2c(CN3CCOCC3)c(O)ccc2c1=O,7
5,COc1ccc(/C=N/NC(=O)C(C)Nc2ccc(Cl)cc2)c(OC)c1 (configuration not stated),15.4
6,O=C(Cn1cc(/C=C2\SC(=S)NC2=O)c2ccccc21)Nc1ccccc1,-11.9
7,COc1ccc(N(CC(=O)Nc2cc(Cl)cc(Cl)c2)S(=O)(=O)c2ccccc2)cc1,9.7
8,COc1ccc(C2C(C#N)=C(N)Oc3[nH]c(=O)[nH]c(=O)c32)c(OC)c1 (configuration not stated),-1.8
9,CCOC(=O)c1c(NC(=O)Cc2ccc(Cl)cc2)sc(C(=O)Nc2cccc(OC)c2)c1C,-8.1
10,COc1ccccc1CC(=O)Nc1cccc(C)c1,-1.8
11,COC(=O)C1=C(C)N(C)C(=O)/C1=C\c1ccc(Br)cc1,-10.3
12,CS(=O)(=O)N(CC(=O)NCc1ccco1)c1ccc(Oc2ccccc2)cc1,6.6
13,CCOc1cccc(=O)c2c(C)n(-c3ccc(C)cc3)c(C)c12,10.2
14,CCOC(=O)C1=C(C)NC2=C(C(=O)CC(C)(C)C2)C1c1ccc(OC(F)F)cc1 (configuration not stated),-0.2
15,COc1ccc(C2/C(=C(\O)c3ccc([N+](=O)[O-])cc3)C(=O)C(=O)N2CCCCCC(=O)O)cc1OC (configuration not stated),-26
16,Cc1cccc(C(=O)N/C(=C/c2ccco2)C(=O)N2CCCC2)c1,17.5
17,CCOc1cc(C(=O)Nc2ccc3c(c2)OCCO3)cc(OCC)c1OCC,-7.7
18,Cc1ccc(-n2c(C)cc(C=O)c2C)cc1C,13.4
19,Cc1occc1-c1nc(Cc2ccc(Cl)cc2)no1,3
20,Cc1cccc(N/C(=N\c2nc(C)cc(C)n2)NC(=O)c2ccccc2)c1,2
21,NC1=NC(=O)/C(=C/c2ccc(OC(=O)c3cccc([N+](=O)[O-])c3)cc2)S1,2.5
22,O=S(=O)(Nc1ccc(OCc2ccccc2)cc1)c1ccccc1,18.6

row,Structure (SMILES),displacement [%]
1,CC(=O)N(Cc1ccc2c(c1)OCO2)C1CC(=O)N(c2ccc(Br)cc2)C1=O (configuration not stated),72.3
2,O=C(Nc1ccccc1C(=O)O)c1cccs1,1.4
3,COc1ccc(C)cc1NC(=O)C(=O)NCc1ccccn1,-12.6
4,CCN(CC)CCCNS(=O)(=O)c1ccccc1[N+](=O)[O-],11.6
5,Cc1ccnc(NC(=O)COc2ccc(Cl)c(C)c2)c1,1.5
6,COc1cccc(NC(=O)COc2cccc(C)c2C)c1,-5.1
7,CCOc1cc(C(=O)N2CCN(c3ccccc3OC)CC2)cc(OCC)c1OCC,-13.2
8,O=C(N/N=C/c1cccs1)C(O)c1ccccc1 (configuration not stated),4
9,CCc1ccccc1NC(=O)C(=O)NCCc1ccc(OC)c(OC)c1,-5.5
10,COC1C(C)=CC(=O)N1Cc1ccccc1 (configuration not stated),4.4
11,COc1ccccc1/C=N/n1c(-c2ccccc2C)nc2ccccc2c1=O,10.6
12,O=C(O)c1ccccc1C(=O)Nc1ccc(Cl)cn1,-5.3
13,COc1ccccc1C1/C(=C(\O)c2ccc([N+](=O)[O-])cc2)C(=O)C(=O)N1CCCCCC(=O)O (configuration not stated),6.3
14,Cc1cc(C)nc(NS(=O)(=O)c2ccc(NC(=S)NC(=O)c3ccc(Br)cc3)cc2)n1,2.6
15,COC(=O)C1=CNC=C(C(=O)OC)C1c1ccsc1,10
16,Cc1ccc(N2C(=O)CSC2c2ccc(Br)cc2)cc1 (configuration not stated),8
17,COc1cc(/C=N\n2c(C)nnc2C)ccc1OCc1ccccc1,1.6
18,O=C(Nc1ccccc1)N1CCOCC1,-1.1
19,CC1=CC(C)(C)Nc2ccc(OC(=O)c3ccccc3)cc21,2.5
20,COc1ccc(-c2nc(-c3cc(OC)c(OC)cc3OC)[nH]c2-c2ccc(OC)cc2)cc1,0.4
21,N/C(=N\OC(=O)c1ccco1)c1ccc(Cl)cc1,-5.2
22,Cc1ccc(NC(=O)c2ccc(S(=O)(=O)N3CCCCC3)cc2)c(C(=O)c2ccccc2)c1,4.3

row,Structure (SMILES),displacement [%]
1,Cn1c(O)c(N=NC(=S)NC2CCS(=O)(=O)C2)c2ccccc21 (configuration not stated),21.5
2,Cc1ccc(C(C)(C)C)c(OCC(=O)O)c1,-1.3
3,COC(=O)c1ccccc1NC(=O)c1cccc(F)c1,-3
4,Cc1ccccc1NC(=O)c1c(NC(=O)C(Cl)(Cl)Cl)sc2c1CCC2,14.9
5,Cc1ccc(Cn2c(NC(=O)c3ccc(Cl)cc3)nc3ccccc32)cc1,7.8
6,Cc1c(Cc2ccccc2)sc(NC(=O)c2ccccc2Br)c1C(N)=O,-12.7
7,COc1cccc(NC(=O)c2c(Cl)cccc2Cl)c1,8.7
8,CN1CCN(c2nc3ccccn3c(=O)c2/C=C2\SC(=S)N(CC3CCCO3)C2=O)CC1 (configuration not stated),-51.2
9,COc1ccc(N(CC(=O)Nc2ccc3ccccc3c2)S(=O)(=O)c2ccccc2)cc1Cl,13.1
10,COc1ccc(COC(=O)C2=C(C)NC(=O)CC2c2c(F)cccc2Cl)cc1 (configuration not stated),5.9
11,O=S(=O)(Nc1ccccc1CO)c1ccc2ccccc2c1,4.9
12,COc1cc(/C=C2\C(=O)NN(c3ccccc3)C2=O)ccc1OCC(=O)O,13.8
13,CC(C)CC(=O)Nc1ccccc1C(=O)Nc1ccc(C(=O)O)cc1,11.9
14,CCOP(=O)(OCC)C(c1ccco1)N(C)C(=O)C1CC1 (configuration not stated),2.3
15,COc1ccc(Br)cc1C(=O)Nc1cccc2nsnc12,1.2
16,COc1cc(C(=O)O/N=C(/c2ccncc2)c2ccc([N+](=O)[O-])cc2)cc(OC)c1OC,-11.9
17,CC(C)(C)c1ccc(OCC(=O)Nc2ccc(F)cc2)cc1,0
18,O=C(Nc1nc(-c2cc(Cl)ccc2Cl)cs1)C(Cl)Cl,12.8
19,Cc1cc(C)nc(/N=C(/N)Nc2ccc3ccccc3c2)n1,-10.7
